Measurements from paper PMC4336329 (PLoS ONE, 2015).
Among all 310,000 compounds or so, about 2,200 (0.71%) showed an effect of 50% or more. Effects have a minus sign here. The list shows a part of the results.

Each compound was assayed against human ether-à-go-go-related gene (hERG) potassium channel (human, UniProt Q12809) (assay: primary screen, population patch clamp on CHO cells stably expressing hERG).
Chain of human ether-à-go-go-related gene (hERG) potassium channel (Q12809 whole entry, looked up): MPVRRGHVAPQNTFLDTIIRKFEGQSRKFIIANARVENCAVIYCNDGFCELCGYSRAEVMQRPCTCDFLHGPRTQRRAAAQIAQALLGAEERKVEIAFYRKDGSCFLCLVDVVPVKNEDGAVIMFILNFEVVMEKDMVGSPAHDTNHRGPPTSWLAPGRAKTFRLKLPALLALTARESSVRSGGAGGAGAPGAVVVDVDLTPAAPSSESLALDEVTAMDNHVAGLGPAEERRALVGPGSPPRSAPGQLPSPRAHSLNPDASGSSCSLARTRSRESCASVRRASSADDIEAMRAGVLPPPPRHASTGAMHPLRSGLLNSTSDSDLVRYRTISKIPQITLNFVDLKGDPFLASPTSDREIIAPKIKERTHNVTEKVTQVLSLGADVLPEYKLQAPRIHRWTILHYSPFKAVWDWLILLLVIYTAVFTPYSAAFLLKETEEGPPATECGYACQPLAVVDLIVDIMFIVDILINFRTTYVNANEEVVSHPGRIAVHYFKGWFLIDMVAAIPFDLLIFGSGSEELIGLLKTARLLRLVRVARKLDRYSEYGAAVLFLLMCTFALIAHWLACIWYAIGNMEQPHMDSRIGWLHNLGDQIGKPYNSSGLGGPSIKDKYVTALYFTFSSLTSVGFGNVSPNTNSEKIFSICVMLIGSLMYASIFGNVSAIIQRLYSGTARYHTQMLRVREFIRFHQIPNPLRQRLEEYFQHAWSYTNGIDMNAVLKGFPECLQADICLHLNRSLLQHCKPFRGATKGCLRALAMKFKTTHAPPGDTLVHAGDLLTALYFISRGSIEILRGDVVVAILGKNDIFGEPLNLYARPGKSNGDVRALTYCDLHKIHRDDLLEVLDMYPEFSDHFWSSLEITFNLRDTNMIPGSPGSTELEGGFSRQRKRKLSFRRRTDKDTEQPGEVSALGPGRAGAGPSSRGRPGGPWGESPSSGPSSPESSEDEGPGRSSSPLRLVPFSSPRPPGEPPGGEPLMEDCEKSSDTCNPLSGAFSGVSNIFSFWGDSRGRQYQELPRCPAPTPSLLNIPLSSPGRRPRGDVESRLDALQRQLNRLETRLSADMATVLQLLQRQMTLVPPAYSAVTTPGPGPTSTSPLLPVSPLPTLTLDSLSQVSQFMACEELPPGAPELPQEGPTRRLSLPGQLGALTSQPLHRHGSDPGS

Structure (SMILES)	hERG current change (%, negative = inhibition) at 1uM [%]
COc1cc2[nH]c3c(=O)n(CCN4CCCCC4)cnc3c2cc1OC	9.82
O=S(=O)(c1ccc(Cl)cc1)N1CCC(c2nc3ccccc3[nH]2)CC1	7.61
COc1cc2c(cc1OC)CN(CC(=O)Nc1ccc(C)cc1)CC2	0.918
O=C1N/C(=C/c2ccsc2)C(=O)N1c1ccccc1	9.37
Cc1cc(=S)c2cccc(C)c2[nH]1	8.81
Cc1cc(C)c(NC(=O)Cn2nc(-c3ccccc3)nc2-c2ccccc2)c(C)c1	0.468
COC(=O)c1ccccc1NC(=O)CSc1nccc(C)n1	13.9
COc1ccc(NC(=O)c2cc(CC(C)C)nc3ccccc23)cc1	10.6
Cc1ccc(OCC(=O)Nc2ccc3c(c2)nc(CCN2CCC(C)CC2)n3C)cc1	-53.3
COc1cc(SC)ccc1C(=O)OC1CCOC1=O (stereo not drawn)	9
O=C1NC(=O)[C@@H]2C3c4ccccc4C=CN3[C@H](C(=O)c3cccs3)[C@H]12 (stereo partly drawn)	11.9
O=C(NCCOC12CC3CC(CC(C3)C1)C2)c1cccc(Br)c1	11.2
Cc1oc(-c2cccc(Cl)c2)nc1CN1CCCC(C(=O)NCCCN2CCOCC2)C1 (stereo not drawn)	6.68
COc1cccc(CNC(=O)[C@H](CC(C)C)NC(=O)N2CCn3c2nc2ccccc23)c1	9.42
CCOc1ccc(CCNC(=O)c2nnn(CC(=O)Nc3ccccc3C)c2N)cc1OCC	8.36
Cn1c(C(C(=O)NCC2CCCO2)N(CCc2ccccc2)C(=O)Cn2nnc3ccccc32)nc2ccccc21 (stereo not drawn)	9.83
O=C(COC(=O)c1cccnc1Cl)Nc1cc(S(=O)(=O)N2CCOCC2)ccc1Cl	1.41
O=C(NC1CCCC1)c1ccc2c(c1)S(=O)(=O)c1ccccc1C2=O	2
CCOc1ccc(N(CC(=O)NCCSCc2ccccc2)S(C)(=O)=O)cc1	15.4
CC(OC(=O)c1cc(=O)[nH]c2ccccc12)C(=O)Nc1ccc(Cl)cn1 (stereo not drawn)	11.2
O=C(CSc1nc2ccccc2s1)N/N=C/c1ccccc1C(=O)O	30
CCOC(=O)c1c(NC(=O)CN2C(=O)NC3(CCC(C)CC3)C2=O)sc(C)c1-c1ccc(C)cc1 (stereo not drawn)	6.35

Structure (SMILES)	hERG current change (%, negative = inhibition) at 1uM [%]
Cc1cc(NCCN)nc2ccccc12.O=[N+]([O-])O	15.2
CCN1CCN(CC(=O)Nc2cccc(C)c2C)C(=O)C1=O	4
CCc1cc(C(c2ccccc2OC)N2CCOCC2)c(NC(=O)c2ccccc2)s1 (stereo not drawn)	16.1
COc1ccc(-c2c[n+](CC(=O)c3cccs3)c3n2CCC3)cc1.[Br-]	15.5
O=C(Cc1ccccc1)NC1CCN(C(=O)NCc2ccccc2)CC1	-8.61
O=C(COc1cccnc1[N+](=O)[O-])NC1CCS(=O)(=O)C1 (stereo not drawn)	15.7
COc1cc(C(=O)N2CCN(c3ccccn3)CC2)cc(OC)c1OC	10.4
COc1ccc(C(=O)Nc2ccc(F)cc2F)cc1OC	17.7
CC(=O)c1cccc(NC(=O)CN2C(=O)C(=O)N(Cc3ccco3)C2=O)c1	8.7
CC(Cc1ccc(Cl)cc1)N1CCC(n2nccc2NC(=O)C2CCCC2)CC1 (stereo not drawn)	-67.5
COc1ccc(/C=N/NC(=O)c2ccncc2)cc1[N+](=O)[O-]	2.93
CC(C)=CCN1CCN(Cc2cnc(N3CCOCC3)s2)CC1CCO (stereo not drawn)	13.1
O=C(COC(=O)c1ccc(S(=O)(=O)N2CCCC2)cc1)NCc1ccc(F)cc1	8.97
CC(=O)Nc1ccc(NC(=O)CSc2nnnn2-c2ccc3c(c2)OCCO3)cc1	-0.0583
C/C(=N\NC(=O)c1cc(C(C)C)[nH]n1)c1ccco1	5.77
CC(=O)c1ccc(OCC(=O)OCC(=O)Nc2sccc2C(N)=O)cc1	8.96
COc1ccc2c(c1)OC[C@H]1[C@H]2N2C(=O)CN(CCc3c[nH]c4ccccc34)C(=O)[C@@]2(C)[C@H]1c1ccccc1	18.6
CC(=O)OCCCNc1cc(Sc2ccc(C)cc2)c2nonc2c1[N+](=O)[O-]	7.9
COc1ccc(C(=O)Nc2ccc(Cl)cc2C(=O)N2CCCC(C)C2)cc1OC (stereo not drawn)	14
CN1CCN(C(=S)c2cn(Cc3cccc(F)c3)c3ccccc23)CC1	9.08
COc1ccc(NC(=O)C2=CC(c3ccco3)=NS(=O)(=O)N2C)cc1	6.47
Cc1cc(=O)oc2cc(OCC(=O)N3CCC(O)CC3)c(Cl)cc12	19.4

Structure (SMILES)	hERG current change (%, negative = inhibition) at 1uM [%]
CCC(=O)Nc1nnc(/C=C/c2ccc(OC)cc2)s1	14.8
COc1ccccc1Nc1nc(NCCCCO)nc(N2CCCC2)n1	2.96
CCc1ccc(C(=O)OCC(=O)NCC(F)(F)F)cc1	21.1
Cc1ccc(C(=O)N2CCNC(=O)C2CC(=O)Nc2ccc(F)cc2)cc1C (stereo not drawn)	11.5
CS(=O)(=O)N(CC(=O)NCc1ccco1)Cc1ccc(Cl)cc1	-17.7
Cc1cc(=O)[nH]c(-c2cccs2)n1	4.84
Cc1ccc(S(=O)(=O)N2CCCN(C(C)c3nc4ccccc4c(=O)[nH]3)CC2)cc1 (stereo not drawn)	-17.1
O=C(Nc1ccccc1Cl)/C(Cl)=C(\Cl)S(=O)c1ccccc1 (stereo not drawn)	15.9
Cc1c(Cl)c(C(=O)Nc2nc3ccccc3n2CCN2CCCCC2)nn1C	-61.5
CC(=O)Nc1ccc(S(=O)(=O)Nc2nc3ccccc3nc2Nc2ccc(N)cc2)cc1	23.9
Cc1ccc(C(=O)Nc2cccc3ccccc23)o1	15.3
CC(=O)Nc1ccc(SCC(=O)c2cc(C)ccc2C)cc1	10.7
O=C(CC1SC(=Nc2cccc3ccccc23)N(Cc2ccccn2)C1=O)Nc1ccccc1Br (stereo not drawn)	10.8
C=C(C)c1cccc(C(C)(C)NC(=O)Nc2nncs2)c1	3
COc1ccc(CNC(=O)C/C(C)=N/NC(=O)c2cc(OC)cc(OC)c2)cc1	11.5
CCNc1cc(O)ccc1C	5.88
O=C(N/N=C/c1ccccc1)c1[nH]c2ccc(Br)cc2c1-c1ccccc1	12.8
CCCCOc1ccc(N(CC(=O)NCc2ccco2)C(=O)CCC(=O)Nc2nccs2)cc1	13.7
CCn1cc(CN(C)S(=O)(=O)c2cccc([N+](=O)[O-])c2)cn1	3.23
CNC(=S)N/N=C/c1ccco1	15.3
CCn1c(-c2cc3c(C(F)(F)F)nn(C)c3s2)n[nH]c1=S	11.7
COc1ccc(NC(=O)N/C=C/c2ccccc2)cc1	22.7

Structure (SMILES)	hERG current change (%, negative = inhibition) at 1uM [%]
Cc1cc(C(=O)CSc2nncs2)c(C)n1Cc1ccco1	3.07
COc1ccc(C2C(C(=O)NCc3ccccn3)c3ccccc3C(=O)N2C)cc1OC (stereo not drawn)	12.4
COc1cccc(CC(=O)OCC(=O)N(C)CC(=O)Nc2ccccc2Cl)c1	13.9
CC1=NN(c2ccccc2)C(=O)/C1=C/c1ccc[nH]1	7.87
Fc1ccc(F)c(C2=NNC(=NCC3CCCO3)SC2)c1 (stereo not drawn)	9.19
CC(C)c1ccc2[nH]c(O)c(N=NC(=O)c3cccc(S(=O)(=O)N4CCCCC4)c3)c2c1	1.94
COc1ccccc1NS(=O)(=O)c1ccc(-c2cnc(C3CC3)o2)cc1	10.2
O=C(Nc1ccc(OC(F)(F)F)cc1)c1[nH]ncc1[N+](=O)[O-]	6.28
C=CCNC(=O)c1c(Cl)nc(C)c([N+](=O)[O-])c1C	11.5
COCCCNC(=O)C1CCC(=O)N1Cc1ccccc1Cl (stereo not drawn)	-0.356
CCOc1ccc(/C=c2\sc3nc(-c4ccco4)nn3c2=O)cc1OCC	9.88
CCOC(=O)C1=NNC(C(=O)c2ccc(Cl)cc2)C1c1ccccc1 (stereo not drawn)	5.78
COc1ccc(N2CCN(C(c3ccc4ncccc4c3)c3nnnn3C(C)(C)C)CC2)cc1 (stereo not drawn)	-23.1
CCN(C(=O)CCNC(=O)Cn1cnc2ccccc2c1=O)c1ccccc1F	16.1
COc1cccc(CNC(=O)CCC2CCCN(C(=O)CCc3c(C)noc3C)C2)c1 (stereo not drawn)	6.27
O=C1NCC(O)=C1C=Nc1ccccc1O	10.6
CCOc1ccc(Nc2ccnc3cc(Cl)ccc23)cc1	3.86
CC(=O)N/C(=N/c1nc(C)cc(C)n1)Nc1ccc(F)cc1F	12.7
CCOC(=O)C1CCCN(C(=O)c2ccc(CNc3c(N4CCC(C)CC4)c(=O)c3=O)cc2)C1 (stereo not drawn)	4.45
C=C1CCN(c2ccc(C(=O)NCc3ccc(C)cc3)cc2[N+](=O)[O-])CC1	12.5
CC(Oc1ccc2c(-c3ccccc3)cc(=O)oc2c1)C(=O)NCC1CCC(C(=O)O)CC1 (stereo not drawn)	10.9
